# Results from PubChem BioAssay AID504339 (National Center for Advancing Translational Sciences (NCATS), 2011).
# Out of some 390,000 compounds screened, about 17,000 (4.4%) were called active. The shares of active, inactive and inconclusive entries below differ from those in the screen. The call rests on the fitted dose curve; in most records, active means well fitted inhibition curve with a large enough effect; inconclusive means small, poorly fitted or top-dose-only effect; inactive means no such curve, though single readings can be large or run the other way. Potencies beside an inconclusive call are fits to weak or partial responses and may not hold up.
# Molecular target: Lysine-specific demethylase 4A (Homo sapiens) (UniProt O75164)
# Test: qHTS Assay for Inhibitors of JMJD2A-Tudor Domain; further: nearly all actives have a fitted effect of over 50% in size
# Conditions: AlphaScreen JMJD2A-Tudor / H3K4me3 peptide binding; activity change, negative = inhibition: at 114 µM (top of the series)
# On the % scale 0 is the no-effect control and ±100 the full control effect; potency means the concentration at half of the fitted maximal effect; tags describe the fitted curve by direction and shape.
# Chain of UniProt O75164 (O75164 whole entry, looked up, the tested form may be a part): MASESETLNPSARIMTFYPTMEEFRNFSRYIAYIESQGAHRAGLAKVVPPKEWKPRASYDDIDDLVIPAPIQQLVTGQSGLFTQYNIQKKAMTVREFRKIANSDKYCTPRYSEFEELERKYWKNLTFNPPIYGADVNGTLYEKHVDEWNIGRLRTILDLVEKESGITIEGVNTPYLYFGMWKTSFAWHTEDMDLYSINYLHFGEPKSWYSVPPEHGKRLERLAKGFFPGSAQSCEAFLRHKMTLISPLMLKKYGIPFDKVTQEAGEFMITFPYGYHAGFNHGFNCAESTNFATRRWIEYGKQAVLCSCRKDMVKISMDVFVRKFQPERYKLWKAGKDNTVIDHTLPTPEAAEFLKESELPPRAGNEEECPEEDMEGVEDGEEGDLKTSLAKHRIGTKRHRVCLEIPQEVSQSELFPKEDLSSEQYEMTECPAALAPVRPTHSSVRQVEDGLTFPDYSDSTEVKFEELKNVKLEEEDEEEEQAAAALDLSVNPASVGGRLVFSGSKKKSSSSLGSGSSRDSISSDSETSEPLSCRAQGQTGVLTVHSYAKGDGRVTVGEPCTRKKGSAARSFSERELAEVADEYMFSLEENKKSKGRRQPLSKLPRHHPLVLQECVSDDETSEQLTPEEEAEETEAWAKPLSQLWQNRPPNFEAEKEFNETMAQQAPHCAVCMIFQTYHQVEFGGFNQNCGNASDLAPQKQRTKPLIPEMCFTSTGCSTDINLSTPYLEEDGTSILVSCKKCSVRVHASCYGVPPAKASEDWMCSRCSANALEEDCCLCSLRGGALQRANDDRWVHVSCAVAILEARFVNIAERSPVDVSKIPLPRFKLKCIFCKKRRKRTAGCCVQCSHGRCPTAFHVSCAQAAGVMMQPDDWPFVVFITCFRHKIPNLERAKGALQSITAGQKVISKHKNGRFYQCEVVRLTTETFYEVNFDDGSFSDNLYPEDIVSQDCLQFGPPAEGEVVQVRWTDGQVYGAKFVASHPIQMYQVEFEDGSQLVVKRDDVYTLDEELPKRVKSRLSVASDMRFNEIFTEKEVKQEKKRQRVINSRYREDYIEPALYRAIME
Structure (SMILES),Potency,"activity change, negative = inhibition"
O=C(CCN1CCCCC1)Nn1c(=S)[nH]c2ccccc2c1=O,active: 0.708 µM,–
CCCCN(C(=O)CCC(=O)O)C1CC(=O)N(c2ccc(OCCC)cc2)C1=O (stereo not given),inactive,–
COc1ccc(/C=N/NC(=O)CCSc2nc3ccccc3s2)cc1,"inconclusive: 12.6 µM [inhibitor, partial curve]",–
COC(=O)[C@@]1(C)[C@H]2C(=O)N(C)C(=O)[C@H]2[C@H]2CN=C(SCC(=O)c3ccccc3)N21,"inconclusive: 89.1 µM [inhibitor, single point]",–
COCCn1c(CCc2ccccc2)n[nH]c1=S,"inconclusive: 3.98 µM [inhibitor, full curve, poor fit]",–
CCNc1oc(COc2ccccc2F)nc1C#N,inactive,–
Cc1ccc(-n2nc(C)c(C(=O)NCCCN3CCN(c4ccccc4F)CC3)c2-n2cccc2)cc1,"inconclusive: 63.1 µM [inhibitor, partial curve, poor fit]",–
COC(=O)Cc1c(C)c2ccc(OCc3nn[nH]n3)c(C)c2oc1=O,inactive,–
Cc1ccc(NS(=O)(=O)c2cccc(C(=O)NCCc3c[nH]c4ccccc34)c2)c(C)c1,"inconclusive: 44.7 µM [inhibitor, partial curve]",–
O=C(Nc1cccn(Cc2cccc(F)c2)c1=O)NC1CCCCC1,"inconclusive: 89.1 µM [inhibitor, single point]",–
CCOc1ccc2ccccc2c1C(=O)NCC(c1ccc(N(C)C)cc1)N(C)C (stereo not given),inactive,–
CSc1nc(N)c2c3c(sc2n1)CN(C)CC3,inactive,–
CC(NC(=O)Cc1ccc(NC(=O)N2CCCCc3ccccc32)cc1)c1ccccc1 (stereo not given),inactive,–
O=[N+]([O-])c1nn(-c2ccc3c(c2)OCCO3)n(O)c1=NC1CCCCCC1,active: 22.4 µM,–
CC(=O)NC1C(c2nc3ccccc3s2)=C(c2ccccc2)C(=O)N1c1ccc(C)cc1 (stereo not given),"inconclusive: 17.8 µM [inhibitor, full curve]",–
O=c1cc(-c2ccccc2)oc2cc(O)c(O)c(O)c12,"inconclusive: 56.2 µM [inhibitor, partial curve]",–
Cc1cc(C(=O)C(C)OC(=O)c2cnccn2)c(C)n1-c1ccccc1 (stereo not given),"inconclusive: 63.1 µM [inhibitor, partial curve]",–
COc1ccc(N2CCN(C(=O)COC(=O)c3ccc(-n4nc(C)cc4C)cc3)CC2)cc1,inactive,–
N/C(=N\OC(=O)c1cc(Cl)ccc1Cl)c1cccnc1,"inconclusive: 89.1 µM [inhibitor, single point]",–
COc1ccc(C2c3sc(=O)[nH]c3SCC2C(N)=O)cc1 (stereo not given),–,inactive: -20.6% [at 11.4 µM]
CC(=O)N1c2ccccc2NC2=C(C(=O)CCC2)C1c1ccco1 (stereo not given),inactive,–
COc1cc(OC)c(C2C=C(c3ccc(C)cc3)Nc3c(C(=O)Nc4ccccc4)cnn32)cc1OC (stereo not given),"inconclusive: 20 µM [inhibitor, full curve, poor fit]",–
CCN(CC)c1ccc(N=Nc2ncn[nH]2)cc1,"inconclusive: 39.8 µM [inhibitor, partial curve, poor fit]",–
CCOC(=O)N1CCC(=NNc2ncc(C(F)(F)F)cc2Cl)CC1,"inconclusive: 89.1 µM [inhibitor, partial curve, poor fit]",–

Structure (SMILES),Potency,"activity change, negative = inhibition"
Cc1ccc(/C=C2/SC(=S)N(c3ccc(S(=O)(=O)Nc4nccs4)cc3)C2=O)cc1,"inconclusive: 12.6 µM [inhibitor, full curve]",–
Cc1ccc(NC(=O)c2ccc3c(=O)n4nc(Nc5ccccc5C)sc4nc3c2)cc1C,inactive,–
O=C(CCC(=O)Nc1ccccc1)NNS(=O)(=O)c1ccc(Cl)cc1,"inconclusive: 25.1 µM [inhibitor, full curve, poor fit]",–
O=C(Nc1ccc(F)cc1)c1cccc(N2CCCS2(=O)=O)c1,inactive,–
CCCc1cc(C(=O)N/N=C/c2cccn2C)cs1,"inconclusive: 56.2 µM [inhibitor, partial curve]",–
COc1ccccc1OCCNC1CCCC1,active: 3.55 µM,–
CN(C)CCn1nnnc1SCC1=C(C(=O)O)N2C(=O)[C@@H](NC(=O)Cc3csc(N)n3)[C@H]2SC1,active: 56.2 µM,–
Cc1[nH]c2ccc(C(=O)N3CCN(C)CC3)cc2c1C,active: 50.1 µM,–
CC(C)OC(=O)C(C(=O)C(F)(F)F)c1cc(NS(=O)(=O)c2ccc3ccccc3c2)c2ccccc2c1O (stereo not given),active: 35.5 µM,–
CCOC(=O)C1=C(CNCc2ccccc2)NC(=O)NC1c1ccc(C)cc1 (stereo not given),"inconclusive: 11.2 µM [inhibitor, full curve, poor fit]",–
O=C(COc1ccc(Cl)cc1Cl)N(C1CCCCC1)C1CCS(=O)(=O)C1 (stereo not given),inactive,–
CC(=O)c1c(C)c(C)c2n1CCn1c(C)ccc1-2,"inconclusive: 79.4 µM [inhibitor, partial curve]",–
O=C(c1[nH]nc2c1CCc1ccccc1-2)N1CCN(Cc2ccc3c(c2)OCO3)CC1,"inconclusive: 44.7 µM [inhibitor, partial curve]",–
Clc1cccc(-c2ccc(C3Nc4cccc5cccc(c45)N3)o2)c1,active: 39.8 µM,–
Cc1cc(N2CCN(C)CC2)nc2ccc(NC(=O)Nc3ccccc3Cl)cc12,inactive,–
COc1cccc(/C=N/N2CCN(Cc3ccccc3)CC2)c1O,"inconclusive: 50.1 µM [inhibitor, partial curve]",–
Cc1cccc(N2CCN(C(=O)c3cn(C)c(=O)c4c3c3ccccc3n4C)CC2)c1C,"inconclusive: 44.7 µM [inhibitor, partial curve]",–
COc1cc2c(cc1NC(=O)C(C)Oc1ccc(Cl)cc1Cl)oc1ccccc12 (stereo not given),inactive,–
CCc1ccc(OCC2c3cc(OC)c(OC)cc3CCN2C(=O)Cc2ccc(OC)c(OC)c2)cc1 (stereo not given),"inconclusive: 39.8 µM [inhibitor, partial curve]",–
COCCCNC(=O)c1c(N)n(/N=C/c2ccccn2)c2nc3ccccc3nc12,inactive,–
O=C1CCCC2=C1C1(CCCC1)N=C(Nc1nc3cc4ccccc4cc3o1)N2,active: 89.1 µM,–
Cc1sc2nc(CN3CCN(S(=O)(=O)c4cccc5nonc45)CC3)[nH]c(=O)c2c1C,"inconclusive: 89.1 µM [inhibitor, single point]",–
COc1cccc(-c2csc(N3CCN(CC(=O)NNC(=O)c4ccco4)CC3)n2)c1,"inconclusive: 44.7 µM [inhibitor, partial curve]",–
NCCSc1c(-c2ccc(F)cc2)[nH]c2ccccc12,"inconclusive: 63.1 µM [inhibitor, partial curve]",–

Structure (SMILES),Potency,"activity change, negative = inhibition"
COc1cc(NC(=O)c2ncn[nH]2)cc(OC)c1OC,"inconclusive: 31.6 µM [inhibitor, single point]",–
O=C1CCCN2N=C(SCC(=O)Nc3nccs3)SC2=N1,"inconclusive: 56.2 µM [inhibitor, partial curve]",–
CC(=O)Nc1ccc(-c2nnc3n(CC(C)C)c(=O)c4ccccc4n23)cc1,"inconclusive: 31.6 µM [inhibitor, single point]",–
CCOc1ccc(C(=O)C(CCC(CN(C)C)C(=O)c2ccc(OCC)cc2)CN(C)C)cc1 (stereo not given),"inconclusive: 39.8 µM [inhibitor, single point]",–
COc1ccc2ccccc2c1/C=N/N1C(=O)CSC1=S,"inconclusive: 50.1 µM [inhibitor, partial curve]",–
COCCCn1c(=S)[nH]c2sc3c(c2c1=O)CCCC3,"inconclusive: 39.8 µM [inhibitor, full curve, poor fit]",–
CC[C@]12c3[nH]c4ccc(OC)cc4c3CCN1C(=O)C(CC(=O)NCC13CC4CC(CC(C4)C1)C3)C[C@@H]2C(=O)N1CCN(C(=O)c2ccco2)CC1 (stereo not given in full),"inconclusive: 56.2 µM [inhibitor, partial curve]",–
CC(=O)c1ccc(Nc2ccc(-c3ccccc3F)nn2)cc1,"inconclusive: 89.1 µM [inhibitor, partial curve]",–
CC1(C)CNc2cc(N)ccc2S1,active: 44.7 µM,–
CCOC(=O)c1nc(NNC(=O)c2ccc([N+](=O)[O-])cc2)sc1C,"inconclusive: 50.1 µM [inhibitor, partial curve]",–
COc1ccc(-n2c(C)cc(/C=C3\SC(=O)NC3=O)c2C)cc1,"inconclusive: 70.8 µM [inhibitor, partial curve]",–
Clc1ccccc1Cc1noc(CN2CCN(Cc3ccccn3)CC2)n1,"inconclusive: 50.1 µM [inhibitor, partial curve]",–
CCOc1ccc(Nc2c(S(=O)(=O)c3ccccc3)cnc3ccc(CC)cc23)cc1,inactive,–
Cc1[nH]c2ccccc2c1C(=O)C(C)OC(=O)c1ccc([N+](=O)[O-])o1 (stereo not given),"inconclusive: 31.6 µM [inhibitor, partial curve]",–
COc1ccc(N(CC(=O)NN=C2CCN(C)CC2)S(=O)(=O)c2ccc(NC(C)=O)cc2)cc1,inactive,–
CCOc1ccc(N=Nc2c(=O)[nH]n3c(=O)cc(C)[nH]c23)cc1,active: 56.2 µM,–
Cc1ccc2c(c1)C(=O)C(=O)N2CCCOc1ccccc1C,active: 39.8 µM,–
Oc1ccccc1N=Cc1c(O)ccc2ccccc12,"inconclusive: 10 µM [inhibitor, full curve]",–
CCn1c(N2CCN(Cc3ccc([N+](=O)[O-])cc3)CC2)nc2ccccc21,"inconclusive: 56.2 µM [inhibitor, partial curve]",–
CCCCSc1cc(C)nc(N)n1,inactive,–
CC(NC(=O)C1CCN(C(=O)N2CCOc3ccccc32)CC1)c1ccccc1 (stereo not given),"inconclusive: 50.1 µM [inhibitor, partial curve]",–
COc1ccc(C2(O)CCN(CC(=O)Nc3nc(-c4ccccc4)cs3)CC2)cc1,"inconclusive: 89.1 µM [inhibitor, partial curve]",–
